# In PMC4336329 (PLoS ONE, 2015):
# About 2,200 (0.71%) of roughly 310,000 compounds showed an effect of 50% or more. The effect is printed as a negative number. The list shows a part of the results.
# Biological target: human ether-à-go-go-related gene (hERG) potassium channel (human, UniProt Q12809)
# Assay: primary screen, population patch clamp on CHO cells stably expressing hERG
# Sequence of human ether-à-go-go-related gene (hERG) potassium channel (Q12809 whole entry, looked up): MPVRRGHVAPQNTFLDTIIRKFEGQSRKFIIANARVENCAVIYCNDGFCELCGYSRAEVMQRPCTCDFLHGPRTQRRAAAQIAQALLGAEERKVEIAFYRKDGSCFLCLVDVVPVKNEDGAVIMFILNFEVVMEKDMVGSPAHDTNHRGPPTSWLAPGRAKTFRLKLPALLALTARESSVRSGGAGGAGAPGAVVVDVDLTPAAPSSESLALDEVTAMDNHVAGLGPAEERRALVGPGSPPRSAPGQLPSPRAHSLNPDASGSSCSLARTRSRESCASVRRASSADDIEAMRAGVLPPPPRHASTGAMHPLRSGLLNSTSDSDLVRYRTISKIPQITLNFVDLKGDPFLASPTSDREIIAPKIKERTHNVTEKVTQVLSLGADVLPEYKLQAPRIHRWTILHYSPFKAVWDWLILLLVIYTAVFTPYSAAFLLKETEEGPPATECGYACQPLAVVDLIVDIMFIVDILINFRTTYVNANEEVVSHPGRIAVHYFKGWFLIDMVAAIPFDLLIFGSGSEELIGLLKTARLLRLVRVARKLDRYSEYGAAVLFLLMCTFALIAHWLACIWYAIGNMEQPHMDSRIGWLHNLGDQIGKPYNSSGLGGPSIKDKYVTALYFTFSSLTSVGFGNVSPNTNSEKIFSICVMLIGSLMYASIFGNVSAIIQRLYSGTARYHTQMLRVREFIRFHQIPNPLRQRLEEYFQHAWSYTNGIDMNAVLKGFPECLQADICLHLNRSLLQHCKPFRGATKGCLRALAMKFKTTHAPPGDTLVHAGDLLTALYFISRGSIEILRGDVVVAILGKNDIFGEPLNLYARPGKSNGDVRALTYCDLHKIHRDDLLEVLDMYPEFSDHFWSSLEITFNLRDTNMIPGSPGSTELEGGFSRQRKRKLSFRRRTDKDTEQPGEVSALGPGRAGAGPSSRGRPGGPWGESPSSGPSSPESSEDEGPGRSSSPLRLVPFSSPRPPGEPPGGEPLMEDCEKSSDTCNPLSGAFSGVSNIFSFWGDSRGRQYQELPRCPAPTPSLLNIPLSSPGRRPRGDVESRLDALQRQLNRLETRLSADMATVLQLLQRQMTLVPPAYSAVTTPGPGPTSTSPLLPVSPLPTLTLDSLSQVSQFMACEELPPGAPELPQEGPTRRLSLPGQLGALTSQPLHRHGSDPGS
row,Compound,"hERG current change (%, negative = inhibition) at 1uM"
1,CC(=O)Oc1ccc(C(=O)Nc2nnc(C)s2)cc1,-1.04%
2,O=C1NC(=Nc2ccccc2)SC1(CO)CO,11.2%
3,O=C(c1ccc(-c2ccc([N+](=O)[O-])cc2)o1)N1CCCCCCC1,-6.48%
4,Cc1sc2ncn(CC(=O)NCCCC(=O)Nc3ccc(C(C)C)cc3)c(=O)c2c1C,7.97%
5,CCOC(=O)Cc1csc(NC(=O)CSc2nnc(-c3ccc(F)cc3)o2)n1,8.78%
6,CCc1cccc(C)c1NC(=O)CN(C)Cc1ccc(Br)cc1,4.89%
7,CC(=O)Nc1ccc(C(=O)NNC(=O)c2ccccc2-n2cccc2)cc1,8.82%
8,COc1ccccc1N1CCN(c2nc(-c3ccccc3)cc(C(F)(F)F)n2)CC1,5.45%
9,CC1CCCc2sc3nc(N4CCN(CCO)CC4)n4ncnc4c3c21 (centres unmarked),-0.829%
10,COc1ccc(-c2cc(C(=O)N(C)Cc3ccc(OC)c(OC)c3OC)c3ccccc3n2)cc1OC,11.7%
11,O=S(=O)(Nc1ccc(-c2nnc(SCc3ccc(Cl)cc3)o2)cc1)c1ccccc1,9.6%
12,Cc1cccc(NC(=O)CN2C(=O)N/C(=C/c3cc(C)n(-c4ccncc4)c3C)C2=O)c1,4.64%
13,O=C(CO/N=C/c1ccc(OC(F)F)cc1)NC1CCCCC1,8.77%
14,CC(N=C(NS(=O)(=O)c1ccc(Cl)cc1)c1ccccc1)C(=O)O (centres unmarked),12.1%
15,CC(NC(=O)c1cc(-c2ccncc2)nc2ccc(Br)cc12)C1CCCO1 (centres unmarked),8.33%
16,CCc1ccc2[nH]c(=O)c(CN(CC3CCCO3)C(=S)NCc3ccco3)cc2c1 (centres unmarked),1.12%
17,Cc1ccc2c(c1)c1c(n2CC(O)CNC2CCCCC2)CCCC1.Cl (centres unmarked),2.28%
18,O=C(Nc1nccs1)c1c(O)c2cccc3c2n(c1=O)CCC3,12%
19,Cc1ccc(C(=O)Nc2ccc(S(=O)(=O)NC3=NCCCCC3)cc2)c(C)c1,2.62%

row,Compound,"hERG current change (%, negative = inhibition) at 1uM"
1,CCc1c(C(C)S(=O)(=O)c2ccccc2)[nH]c(=O)n1CC (centres unmarked),15%
2,COc1ccc(C(C(=O)NC2CCCC2)N(Cc2cccnc2)C(=O)Cc2cccs2)c(OC)c1 (centres unmarked),12%
3,O=C(CN1C(=O)c2ccccc2C1=O)Nc1cccc([N+](=O)[O-])c1,10.3%
4,CCOC(=O)/C=C/C(=O)NNC(=O)c1ccccc1Cl,7.82%
5,Cc1ccccc1N1CCN(C(=O)[C@@H]2CCCN2C2=NS(=O)(=O)c3ccccc32)CC1,10.8%
6,CCOC(=O)/C(=C\c1cccnc1)C(=O)c1cc(C(C)=O)c(Nc2ccccc2)s1,11.9%
7,S=C(Nc1ccccc1)N1CCCCC1,4.67%
8,O=C(CN1CCN(S(=O)(=O)c2ccc(Br)cc2)CC1)Nc1ccc(F)cc1F,-10.1%
9,CCSc1ncc(/C=N/Nc2ccc(F)cc2)n1C,3.79%
10,CC1(C)CC(=O)C(C2NCCc3ccccc32)=C(O)C1 (centres unmarked),18.1%
11,COc1ccc(/C=N/N2CCN(C3c4ccccc4-c4ccccc43)CC2)cc1OC,12.9%
12,CCOc1ccc([N+](=O)[O-])c(N)c1,-2.68%
13,CCC(=O)N=c1sc2ccccc2n1-c1ccccc1,6.78%
14,COC(=O)c1ccc(COc2ccccc2OC)o1,16.3%
15,CN(c1ccccc1C(=O)Nc1ccc2c(c1)OCO2)S(C)(=O)=O,0.848%
16,CN(C)c1ccc(C=Nc2cnn(C)c2C(N)=O)cc1,3.48%
17,COC(=O)c1[nH]c2ccccc2c1NC(=O)C(C)N1CCN(C(=O)c2ccco2)CC1 (centres unmarked),-13.1%
18,CCC(=O)Nc1ccc(OCc2nnc3c4ccccc4c(C)nn23)cc1,-5.64%
19,O=C(Cn1c(=O)n(Cc2ccccc2)c(=O)c2ccccc21)NCc1ccco1,11.7%

row,Compound,"hERG current change (%, negative = inhibition) at 1uM"
1,Cc1ccc(C2=NN(S(C)(=O)=O)C(c3cccs3)C2)cc1 (centres unmarked),2.96%
2,O=C1c2ccccc2C(=O)N1CC(O)COCc1ccccc1 (centres unmarked),17.6%
3,Fc1cc(F)cc(-c2c(-c3ccccc3)ncc3ccc(F)cc23)c1,13.4%
4,C/C(=N\O)c1noc(C)c1C(=O)Nc1nccs1,13.1%
5,CCn1c(SCC(=O)OCc2ccccc2)nc2c1c(=O)n(C)c(=O)n2C,-9.11%
6,CC(NCc1cccs1)c1ccccc1.Cl (centres unmarked),11.4%
7,Cc1cccc(NNC(N)=S)c1C,-2.57%
8,Cc1ccc(S(=O)(=O)c2c(C)nn(-c3ccccc3)c2OC(=O)c2ccco2)cc1,5.81%
9,O=C(CCC(=O)N1CCOc2ccccc21)Nc1cc(F)ccc1F,2.8%
10,CCOC(=O)N1CCN(C(=O)CSc2nnc(COc3ccc(Cl)cc3)o2)CC1,-2.74%
11,O=C(NC(=S)NNC(=O)[C@H]1C[C@@H]1c1ccccc1)c1cccc(F)c1,18.1%
12,CC(C)NC[C@H](O)c1ccc(O)c(O)c1.Cl,-0.439%
13,CCN1CCN(Cc2nc3ccc([N+](=O)[O-])cc3c(=O)n2-c2ccccc2F)CC1,5.29%
14,O=C1C2CCCN2C(c2cccc(Br)c2)N1c1ccc(F)cc1 (centres unmarked),0.674%
15,CCC(Oc1ccc(Br)cc1)C(=O)N1CCN(c2ncccn2)CC1 (centres unmarked),4.19%
16,CC(=O)c1cc(-c2ccc(F)cc2)n(CCC(=O)Nc2cc(C)[nH]n2)c1C,11.7%
17,NC(=O)CSc1nnc(-c2cccc(S(=O)(=O)N3CCOCC3)c2)n1C1CCCCCC1,-2.36%
18,CCOc1ccc(/C=C/c2[nH]c(=O)[nH]c(=O)c2[N+](=O)[O-])cc1,10.2%
